Here are results for 1 molecule from patent US20170355953A1 (OSAKA UNIVERSITY, published 2017).

This test concerns the target T1, bovine afamin (from fetal calf serum in the culture medium) (bovine, UniProt G3MYZ3 22-604).
T1 construct: mature; Native glycoprotein from fetal calf serum; also called protein X; 65-kDa protein
T1 sequence (looked up): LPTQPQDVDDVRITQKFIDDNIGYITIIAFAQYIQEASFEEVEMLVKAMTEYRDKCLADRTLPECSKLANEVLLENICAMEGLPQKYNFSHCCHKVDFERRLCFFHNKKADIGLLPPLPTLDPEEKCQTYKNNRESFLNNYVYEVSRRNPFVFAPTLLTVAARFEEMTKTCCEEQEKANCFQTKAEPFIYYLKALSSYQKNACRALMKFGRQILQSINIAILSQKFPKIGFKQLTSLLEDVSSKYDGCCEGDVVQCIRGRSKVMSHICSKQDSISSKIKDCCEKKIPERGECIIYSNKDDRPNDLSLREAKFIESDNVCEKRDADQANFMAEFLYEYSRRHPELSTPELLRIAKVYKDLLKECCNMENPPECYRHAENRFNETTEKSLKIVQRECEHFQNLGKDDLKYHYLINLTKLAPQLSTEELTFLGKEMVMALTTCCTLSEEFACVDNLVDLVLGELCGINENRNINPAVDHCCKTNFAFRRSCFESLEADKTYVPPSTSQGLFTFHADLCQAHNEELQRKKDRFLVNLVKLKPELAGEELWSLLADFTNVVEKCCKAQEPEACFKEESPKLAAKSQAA
The experiment in a line: co-immunoprecipitation on B91-sepharose from W-Wnt3a/HEK culture supernatant, western blotting with an anti-Wnt3a antibody. The protocol: The Wnt3a expressing cells (L-3a and W-Wnt3a/HEK) were cultured for 3 days, and the supernatants were harvested. To 1 mL of each supernatant, 20 μL of a sepharose with an anti-bovine afamin monoclonal antibody (clone number B91, hereinafter called “B91”) immobilized thereto was added, and the mixture was rotated end over end for 3 hours. The sepharose was precipitated by centrifugation, and the supernatant was removed. After the sepharose was washed 3 times with 1 mL of TBS, 30 μL of SDS sample buffer was added, and elution was performed under heating at 95° C. for 2 minutes. Eight microliters of the eluate was subjected to electrophoresis under reducing conditions, and separated proteins were stained with ORIOLE. In a separate experiment, 4 μL of the eluate was subjected to electrophoresis, and western blotting using an anti-Wnt3a antibody was performed (see Example 1).
On the technique in general: Immunoblotting shows a protein as a band on a membrane.

B1: mouse Wnt3a fused with an affinity tag (W-Wnt3a) (ligand)
chain: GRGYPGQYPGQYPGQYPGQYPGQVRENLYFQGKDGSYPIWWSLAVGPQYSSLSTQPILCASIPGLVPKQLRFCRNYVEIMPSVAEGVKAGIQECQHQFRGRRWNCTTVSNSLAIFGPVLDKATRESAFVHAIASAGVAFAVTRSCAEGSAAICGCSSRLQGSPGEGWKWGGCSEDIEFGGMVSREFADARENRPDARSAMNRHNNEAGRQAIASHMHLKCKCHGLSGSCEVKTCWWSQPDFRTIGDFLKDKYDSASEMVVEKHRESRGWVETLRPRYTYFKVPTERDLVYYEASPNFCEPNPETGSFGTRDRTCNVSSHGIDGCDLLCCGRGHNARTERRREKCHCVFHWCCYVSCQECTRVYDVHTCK
notes: Secreted from HEK293S GnT1- cells (W-Wnt3a/HEK); The chain is built here from the named pieces; also called N-terminally tagged Wnt3a; 37-kDa Wnt3a
With B1, the binding result was “binds”.
